Target: E. coli MenE (ecMenE) (Escherichia coli, UniProt P37353)
Assay: MenE-MenB coupled assay (enzyme inhibition, catalytic parameters)
Settings: up to a concentration of 100 μM

Chain of E. coli MenE (ecMenE) (P37353 whole entry): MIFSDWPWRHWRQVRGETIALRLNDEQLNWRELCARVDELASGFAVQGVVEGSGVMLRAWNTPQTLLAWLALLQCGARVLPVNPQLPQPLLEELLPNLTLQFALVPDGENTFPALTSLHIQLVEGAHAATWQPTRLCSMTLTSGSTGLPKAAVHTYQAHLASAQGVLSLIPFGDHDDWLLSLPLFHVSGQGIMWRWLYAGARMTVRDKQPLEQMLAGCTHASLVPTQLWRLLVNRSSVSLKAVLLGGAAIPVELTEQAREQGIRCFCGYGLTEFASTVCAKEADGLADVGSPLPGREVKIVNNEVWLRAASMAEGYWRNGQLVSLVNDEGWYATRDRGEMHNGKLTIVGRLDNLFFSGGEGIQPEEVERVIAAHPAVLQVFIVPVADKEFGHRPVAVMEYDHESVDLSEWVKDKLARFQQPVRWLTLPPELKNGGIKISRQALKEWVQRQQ

SMILES	inhibition of ecMenE
Nc1ncnc2c1ncn2[C@@H]1O[C@H](COS(=O)(=O)NC(=O)CCC2OC(=O)c3ccccc32)[C@@H](O)[C@H]1O (some centres unmarked) [Compound 107, 5′-O—(N-[3-(3-Oxo-1,3-dihydroisobenzofuran-1-yl)propanoyl]sulfamoyl) adenosine]	no inhibition
Nc1ncnc2c1ncn2[C@@H]1O[C@H](COS(=O)(=O)NC(=O)CCC2(O)NC(=O)c3ccccc32)[C@@H](O)[C@H]1O (some centres unmarked) [Compound 108, 5′-O—(N-[3-(1-Hydroxy-3-oxoisoindolin-1-yl)propanoyl]sulfamoyl) adenosine]	no inhibition

Reference: patent US20180273573A1, “INHIBITORS OF MENAQUINONE BIOSYNTHESIS” (Memorial Sloan-Kettering Cancer Center, priority 2015, published 2018)
